For three molecules, binding results are on record in paper PMC6262466, “Towards Initial Indications for a Thiol-Based Redox Control of Arabidopsis 5-Aminolevulinic Acid Dehydratase” (Antioxidants, 2018).

These are yes or no findings as the source states them, for the method shown. For part of these data: Binding seen in cells or lysates may run through a third protein. Some results given as binding are weak or reduced against the parent protein; the word gives no strength. Where a sequence is shown, tags or fusion partners need not be part of it.

Test [1] addresses T1, NADPH-dependent thioredoxin reductase C (NTRC), split-YFP fusion for BiFC (Arabidopsis thaliana) (UniProt O22229).
T1 sequence: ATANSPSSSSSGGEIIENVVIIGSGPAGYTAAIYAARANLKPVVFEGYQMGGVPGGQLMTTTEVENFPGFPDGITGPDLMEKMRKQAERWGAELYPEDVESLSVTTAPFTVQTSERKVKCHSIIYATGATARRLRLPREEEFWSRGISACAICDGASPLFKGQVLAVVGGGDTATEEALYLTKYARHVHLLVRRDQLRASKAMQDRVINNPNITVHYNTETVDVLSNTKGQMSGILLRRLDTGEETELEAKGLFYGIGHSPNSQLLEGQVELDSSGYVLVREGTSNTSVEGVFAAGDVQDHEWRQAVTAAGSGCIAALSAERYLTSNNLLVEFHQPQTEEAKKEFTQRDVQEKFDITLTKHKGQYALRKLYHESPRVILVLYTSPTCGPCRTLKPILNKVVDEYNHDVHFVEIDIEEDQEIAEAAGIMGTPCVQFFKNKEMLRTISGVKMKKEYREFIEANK
Briefly: split reporter; fusions to the C- or N-terminal part of YFP (pVYCE, pVYNE), transiently expressed in Nicotiana benthamiana leaves for 48-72 h in darkness; YFP fluorescence by confocal microscopy.

The target of test [2] is T2, thioredoxin f1 (TRX f1), split-YFP fusion for BiFC (Arabidopsis thaliana) (UniProt Q9XFH8).
T2 sequence: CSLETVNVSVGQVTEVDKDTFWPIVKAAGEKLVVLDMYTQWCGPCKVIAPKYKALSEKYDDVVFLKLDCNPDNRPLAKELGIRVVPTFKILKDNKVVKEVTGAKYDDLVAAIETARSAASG
Described as above.

For test [3], the target named is T3, thioredoxin m4 (TRX m4), split-YFP fusion for BiFC (Arabidopsis thaliana) (UniProt Q9SEU6).
T3 sequence: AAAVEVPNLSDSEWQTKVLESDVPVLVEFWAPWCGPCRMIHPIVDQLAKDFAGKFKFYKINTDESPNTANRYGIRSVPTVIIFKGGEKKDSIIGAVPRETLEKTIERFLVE
Described as above.

For test [4], the target named is recombinant His-tagged ALAD (ALAD1 without the predicted transit peptide) (Arabidopsis thaliana) (UniProt Q9SFH9). Briefly: condition: only under reducing conditions (DTT 1-100 mM); non-reducing SDS-PAGE with immunoblot; 0.5 uM purified His-ALAD preincubated in PBS with DTT (1-100 mM), reduced; non-reducing 10% SDS polyacrylamide gel; anti-His blot; both purified.
In test [5] the target is T4, 6 x His-tagged NTRC(C457S) (Arabidopsis thaliana) (UniProt O22229).
T4 sequence: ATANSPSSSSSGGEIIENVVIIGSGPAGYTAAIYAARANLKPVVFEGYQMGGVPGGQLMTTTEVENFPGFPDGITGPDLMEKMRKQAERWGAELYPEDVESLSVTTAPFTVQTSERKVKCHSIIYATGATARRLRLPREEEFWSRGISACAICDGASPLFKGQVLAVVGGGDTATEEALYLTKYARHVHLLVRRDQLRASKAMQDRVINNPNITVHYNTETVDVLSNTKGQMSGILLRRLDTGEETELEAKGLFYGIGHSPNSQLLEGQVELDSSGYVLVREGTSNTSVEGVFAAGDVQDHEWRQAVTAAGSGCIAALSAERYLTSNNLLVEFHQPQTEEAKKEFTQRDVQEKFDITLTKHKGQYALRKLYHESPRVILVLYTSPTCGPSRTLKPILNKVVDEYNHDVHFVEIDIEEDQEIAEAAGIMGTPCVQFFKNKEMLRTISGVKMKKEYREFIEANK
Briefly: pull-down; 100 ug purified 6 x His-tagged bait on Ni-NTA agarose in PBS; incubated 1.5 h at 4 C with Arabidopsis chloroplast extract solubilized with 1% dodecyl maltoside; five washes with PBS; eluted with 250 mM imidazole; immunoblot; only the target purified. A general note: A western blot detects proteins with antibodies after separation by electrophoresis.

For test [6], the target named is T5, 6 x His-tagged TRX m4(C119S) (Arabidopsis thaliana) (UniProt Q9SEU6).
T5 sequence: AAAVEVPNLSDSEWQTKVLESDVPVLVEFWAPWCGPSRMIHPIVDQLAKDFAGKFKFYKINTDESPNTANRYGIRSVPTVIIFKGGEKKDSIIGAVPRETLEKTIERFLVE
The description is as above.

B1: 5-aminolevulinic acid dehydratase (ALAD), split-YFP fusion for BiFC (enzyme, UniProt Q9SFH9 53-430)
chain: ASESGNGHAKKLGMSDAECEAAVAAGNVPEAPPVPPKPAAPVGTPIIKPLNLSRRPRRNRASPVTRAAFQETDISPANFVYPLFIHEGEEDTPIGAMPGCYRLGWRHGLVQEVAKARAVGVNSIVLFPKVPEALKNSTGDEAYNDNGLVPRTIRLLKDKYPDLIIYTDVALDPYSSDGHDGIVREDGVIMNDETVHQLCKQAVSQARAGADVVSPSDMMDGRVGAIRSALDAEGFQNVSIMSYTAKYASSFYGPFREALDSNPRFGDKKTYQMNPANYREALIEAREDEAEGADILLVKPGLPYLDIIRLLRDKSPLPIAAYQVSGEYSMIKAGGVLKMIDEEKVMMESLMCLRRAGADIILTYFALQAATCLCGEKR
B1: the binding result in test [1], in test [2] and in test [3] was “binds” throughout.

B2: recombinant His-tagged ALAD (ALAD1 without the predicted transit peptide) (enzyme, Arabidopsis thaliana, UniProt Q9SFH9 53-430, looked up)
chain: ASESGNGHAKKLGMSDAECEAAVAAGNVPEAPPVPPKPAAPVGTPIIKPLNLSRRPRRNRASPVTRAAFQETDISPANFVYPLFIHEGEEDTPIGAMPGCYRLGWRHGLVQEVAKARAVGVNSIVLFPKVPEALKNSTGDEAYNDNGLVPRTIRLLKDKYPDLIIYTDVALDPYSSDGHDGIVREDGVIMNDETVHQLCKQAVSQARAGADVVSPSDMMDGRVGAIRSALDAEGFQNVSIMSYTAKYASSFYGPFREALDSNPRFGDKKTYQMNPANYREALIEAREDEAEGADILLVKPGLPYLDIIRLLRDKSPLPIAAYQVSGEYSMIKAGGVLKMIDEEKVMMESLMCLRRAGADIILTYFALQAATCLCGEKR
notes: Arabidopsis thaliana ALAD1 (HEMB1; AT1G69740) without the predicted transit peptide (ChloroP); also called recombinant ALAD; purified ALAD; source: E. coli Rosetta(DE3), pET28a, purified (Ni-NTA agarose); not shown: His6, N-terminal, kept
On to B2, for which, in test [4], the binding entry is on record as “no binding”.

B3: 5-aminolevulinic acid dehydratase (ALAD), endogenous in chloroplast extract (enzyme, UniProt Q9SFH9 53-430)
chain: ASESGNGHAKKLGMSDAECEAAVAAGNVPEAPPVPPKPAAPVGTPIIKPLNLSRRPRRNRASPVTRAAFQETDISPANFVYPLFIHEGEEDTPIGAMPGCYRLGWRHGLVQEVAKARAVGVNSIVLFPKVPEALKNSTGDEAYNDNGLVPRTIRLLKDKYPDLIIYTDVALDPYSSDGHDGIVREDGVIMNDETVHQLCKQAVSQARAGADVVSPSDMMDGRVGAIRSALDAEGFQNVSIMSYTAKYASSFYGPFREALDSNPRFGDKKTYQMNPANYREALIEAREDEAEGADILLVKPGLPYLDIIRLLRDKSPLPIAAYQVSGEYSMIKAGGVLKMIDEEKVMMESLMCLRRAGADIILTYFALQAATCLCGEKR
Regarding B3, the binding result in test [5] and in test [6] was “binds” each time.
